Results taken from PubChem BioAssay AID1745845 (National Center for Advancing Translational Sciences (NCATS), 2022).
Where “and” joins values, the source holds several entries; their conditions need not be identical. Equal entries are not always repeated. In all, about 360,000 compounds went through this assay and about 2,600 (0.72%) were called active. The shares of active, inactive and inconclusive entries below differ from those in the screen. Calls follow the shape of the dose curve; as a rule, active = well fitted inhibition curve with a large enough effect; inconclusive = small, poorly fitted or top-dose-only effect; inactive = no such curve, though single readings can be large or run the other way. Potencies beside an inconclusive call are fits to weak or partial responses and may not hold up. Some compounds were tested as several samples or in several runs, with calls that do not always agree.

test: Primary qHTS for Inhibitors of ATXN expression; conditions: HEK-293 ATXN2-luciferase reporter, luminescence, 24 h; activity change, negative = inhibition: at 57 µM (top of the series); also: nearly all actives have a fitted effect of over 55% in size
How it was run: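 qHTS (up to 57 uM final) was run with 24 h compound exposure of reporter cells at 37 °C. Each well was multiplexed: SteadyGlo luminescence measured ATXN2-luciferase expression after a fluorogenic Gly-Phe-AFC viability readout (25 uM final).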
% is scaled to controls: 0 for no effect and ±100 for the full control effect; potency is read from the fitted curve at half-maximal effect; tags tell the direction and shape of the fitted curve.

Structure (SMILES)	Potency	activity change, negative = inhibition
Cc1ccc(-n2nc3c(=O)n(CC(=O)NCCc4ccccc4C)nc(C)c3c2C)cc1	inconclusive: 10 µM [inhibitor, partial curve, poor fit]	
Cc1ccc(C)c(NC(=S)NC(NC(=O)Cc2cccc3ccccc23)C(Cl)(Cl)Cl)c1 (stereo unspecified)	active: 17.8 µM	
Oc1[nH]c2c(Cl)cc(Cl)cc2c1N=NC(=S)NCC1CCCO1 (stereo unspecified)	active: 21.2 µM	
COc1ccc(C#Cc2cccc(-c3nc(C(=O)NCc4ccc(Oc5ccccc5)cc4)cc4c3[C@@H](CCO)N(S(=O)C(C)(C)C)C4)c2)cc1OC (stereo partly specified)	inconclusive: 39.8 µM [inhibitor, partial curve, poor fit]	
COc1ccccc1-c1cc(NC=O)c2ncc(-c3ccc(F)cc3)n2c1	inconclusive: 39.8 µM [inhibitor, single point]	
Cc1cc(C(=O)c2ccc(Cl)cc2)c(NC(=O)CCl)s1	inconclusive: 35.5 µM [inhibitor, single point]	
CN(C)C1=NC[C@H](Cc2ccccc2)N1CCCC1CCCCC1	inconclusive: 14.1 µM [inhibitor, partial curve, poor fit]	
COc1ccc(NS(=O)(=O)c2cccc(C(=O)OCC(=O)N3CCN(c4ccc(OC)cc4)CC3)c2)cc1	inactive	
Cc1ccc(OCc2nnc(SCc3nc4ccccc4[nH]3)n2Cc2ccco2)cc1	inconclusive: 22.4 µM [inhibitor, partial curve, poor fit]	
Cc1[nH]c(C=C2C(=O)Nc3ccc(S(=O)(=O)Cc4c(Cl)cccc4Cl)cc32)c(C)c1C(=O)N1CCC[C@H]1CN1CCCC1	inconclusive: 30.6 µM [inhibitor, partial curve]	
COc1cc(N2CCN(C)CC2)ccc1Nc1nc(N)c(C(=O)c2c(Cl)cccc2Cl)s1	inconclusive: 12.2 µM [inhibitor, full curve]	
Cc1ccc(-c2onc(C)c2C)cc1S(=O)(=O)N1CCOc2ccc(Cl)cc21	inconclusive: 17.8 µM [inhibitor, partial curve, poor fit]	
CC(=O)c1ccc(-c2nc3c4ccccc4ccn3c2C(C)=O)o1	inconclusive: 1.26 µM [inhibitor, full curve]	
O=C(c1ccc2c(=O)n(-c3ccccc3)c(=S)[nH]c2c1)N1CCN(c2ccccc2)CC1	inactive	
CSc1nncc(/C(C)=N\Nc2cccc(C)c2)n1	inconclusive: 28.2 µM [inhibitor, single point]	
COCCn1c(N2CCN(c3ccc(OC)cc3)CC2)nc2c1c(=O)[nH]c(=O)n2C	inconclusive: 10 µM [inhibitor, partial curve, poor fit]	
CCOC(=O)N1CCC(NC(=O)c2ccc3c(c2)N=C(CC)c2cc(C)ccc2S3)CC1	inconclusive: 35.5 µM [inhibitor, single point]	
CCOc1ccc(Oc2ccccc2NC(=O)CSCC(=O)Nc2cc(C)on2)cc1	inactive	
CC(C)(C)C(=O)N1CCc2cc(-c3csc(N)n3)ccc21	inconclusive: 12.6 µM [inhibitor, single point]	
CC(C)c1ccc(S(=O)(=O)Nc2ccc(SC(F)F)cc2)cc1	inactive	
CCCCCC(=O)Nc1cccc(C2=NOC3(C2)C[C@@H](C(N)=O)N(C(=O)Cc2ccc([N+](=O)[O-])cc2)C3)c1 (stereo partly specified)	inactive	

Structure (SMILES)	Potency	activity change, negative = inhibition
NC(=NCCCCCCN=C(N)/N=C(\N)Nc1ccc(Cl)cc1)/N=C(\N)Nc1ccc(Cl)cc1	active: 20 µM and inconclusive: 28.2 µM [inhibitor, single point]	
COc1ccc(/C=C2\CN(Cc3ccccc3)C/C(=C\c3ccc(OC)cc3)C2=O)cc1	inconclusive: 39.8 µM [inhibitor, single point]	
O=c1cc(-c2ccncc2)oc2c1ccc1ccccc12	inconclusive: 18.9 µM [inhibitor, single point]	
Cc1oc2ncn(CC(C)C)c(=O)c2c1C(=O)N(CCN(C)C)Cc1ccccc1	inactive	
COc1ccc(NC(=O)c2cc3ccccc3o2)cc1S(=O)(=O)N1CCCCC1	inconclusive: 20 µM [inhibitor, single point]	
CCOc1ccccc1NC(=O)C(NCC1(N2CCCCC2)CCCCC1)c1ccccc1 (stereo unspecified)	inconclusive: 8.44 µM [inhibitor, partial curve, poor fit]	
Cc1cc(S(=O)(=O)Nc2ccc(C(=O)N3CCN(c4ccccc4O)CC3)cc2)ccc1F	inactive	
CCC[C@@H](CN1CCC[C@H]1CN1C(N)=NC[C@@H]1Cc1ccccc1)N1C[C@@H]([C@H](C)CC)N(CCCC2CCCC2)C1=N	inconclusive: 35.5 µM [inhibitor, single point]	
CC1CCCCN1CCNC(=O)c1ccc2c(=O)n(Cc3ccc(Cl)cc3)c(=S)[nH]c2c1 (stereo unspecified)	inconclusive: 28.2 µM [inhibitor, partial curve, poor fit]	
CN1CCN(c2ccc(CNC(=O)c3cccc4c(-c5ccc(F)c(F)c5)coc34)cc2)CC1	inconclusive: 39.8 µM [inhibitor, single point]	
O=C(c1ccccc1)c1sc(Nc2ccc3c(c2)OCO3)nc1-c1ccccc1	inconclusive: 39.8 µM [inhibitor, partial curve, poor fit]	
OC(CSc1nnnn1-c1ccccc1)Cn1c2ccccc2c2ccccc21 (stereo unspecified)	inconclusive: 25.1 µM [inhibitor, single point]	
CN1CCN(c2ccc([N+](=O)[O-])cc2C(=O)c2ccc(Cl)cc2)CC1	inconclusive: 3.98 µM [inhibitor, partial curve, poor fit]	
CC(C)(C)C(=O)COc1ccccc1[N+](=O)[O-]		inactive: 0.721% [at 11.3 µM]
C=CC(=O)Nc1cccc(N(C)c2ccnc(Nc3ccc(N4CCN(C)CC4)cc3)n2)c1	inconclusive: 11.2 µM [inhibitor, partial curve]	
OC1CCCN(Cc2ccc3ccc4cccc5ccc2c3c45)C1 (stereo unspecified)	inconclusive: 28.2 µM [inhibitor, partial curve]	
CC(=O)Nc1ccc2c(c1)Cc1cc(N3C(=O)C=CC3=O)ccc1-2	inconclusive: 39.8 µM [inhibitor, single point]	
O=C(COc1ccccc1/C=C1\SC(=S)NC1=O)Nc1ccc(F)cc1	inconclusive: 15.8 µM [inhibitor, single point]	
Cc1ccc(SC(c2ccc(C)cc2)C(Cn2cncn2)C(=O)c2ccccc2)cc1 (stereo unspecified)	inconclusive: 25.1 µM [inhibitor, partial curve, poor fit]	
Cc1ccc(S(=O)(=O)c2nc(S(C)(=O)=O)sc2N2CCOCC2)cc1	inactive	
COc1cccc2sc(N3CCN(c4nc5ccccc5s4)CC3)nc12	inconclusive: 2.51 µM [inhibitor, partial curve, poor fit]	

Structure (SMILES)	Potency	activity change, negative = inhibition
c1ccc(CN2CCC(Nc3nc(-c4ccccc4)nc4ccccc34)CC2)cc1	inconclusive: 35.5 µM [inhibitor, single point]	
Cc1cccc(Nc2ncc(NC(=O)c3cccc(F)c3)c(Nc3cccc(C)c3)n2)c1	inactive	
COC(=O)c1c(NC(=O)/C=C/C(=O)O)sc(Cc2ccccc2)c1C	inconclusive: 22.4 µM [inhibitor, partial curve]	
CCC(CC)C(=O)Nc1ccc2nc(SCc3ccccc3)sc2c1	inactive	
O=C(Nc1ccc(-c2ccccc2)cc1)c1ccco1	inactive	
COc1cccc(Cn2cnc3c(NS(=O)(=O)c4cccc(Cl)c4Cl)c(C)c(C)cc32)c1	inconclusive: 35.5 µM [inhibitor, single point]	
COc1cc(/C=N/NC(=O)Nc2ccccc2)ccc1OCCOc1ccccc1C	inconclusive: 10 µM [inhibitor, partial curve]	
c1ccc(N(c2ccccc2)c2nc(-n3ccnc3)nc(-n3ccnc3)n2)cc1	inactive	
COc1ccc(N2CCN(C(=O)CSc3c4c(nc5ccc(Cl)cc35)CCCC4)CC2)cc1	inconclusive: 25.1 µM [inhibitor, partial curve, poor fit]	
CCn1c2c(c3cc(OCC(C)C)ccc31)CCCC2=O	inconclusive: 20 µM [inhibitor, partial curve, poor fit]	
CCN1C(=O)[C@H]2[C@@H](c3ccc(-c4ccc(OC)cc4)cc3)N3CCCC[C@@]3(C(=O)OC)[C@H]2C1=O	inconclusive: 20 µM [inhibitor, partial curve, poor fit]	
CC(=O)Nc1ccc(NC(=O)C/C(C)=N/NC(=O)C(=O)N2CCCC2)cc1	inconclusive: 17.8 µM [inhibitor, partial curve, poor fit]	
CCOc1ccc(CNC(=O)c2ccc3c(c2)N(CC)CCS3)cc1	inactive	
COc1cc(/C=N\Nc2ccc([N+](=O)[O-])cc2)ccc1OCC(=O)Nc1ccc(C)c(C)c1	inactive	
Cc1oc(-c2ccccc2F)nc1CSCC(=O)N1CCN(c2ccccc2)CC1	inconclusive: 20 µM [inhibitor, single point]	
Cc1cccc(N2CCN(S(=O)(=O)c3ccc4c(c3)C(C(C)C)C(=O)N4)CC2)c1C (stereo unspecified)	inconclusive: 17.8 µM [inhibitor, partial curve]	
COc1ccc(-c2noc(CCCC(=O)Nc3ccc(C(N)=O)cc3)n2)cc1	inconclusive: 15.8 µM [inhibitor, partial curve]	
COc1ccccc1CNC(=S)NCc1ccc(Cl)cc1	inconclusive: 28.2 µM [inhibitor, partial curve, poor fit]	
O=C(Nc1cccc(-c2nc3ncccc3o2)c1)c1sc2ccccc2c1Cl	inconclusive: 39.8 µM [inhibitor, single point]	
